The values below come from PubChem BioAssay AID1851 (National Center for Advancing Translational Sciences (NCATS), 2009).

The entries are a selection whose mix differs from that of the whole data set. Results filed as inconclusive are left out. Activity calls are given as the source filed them. The call rests on the fitted dose curve; in most records, active means well fitted curve in the direction sought with a large enough effect; inconclusive means small, poorly fitted or top-dose-only effect, or effect the other way; inactive means no such curve, though single readings can be large or run the other way.
On the % scale 0 is the no-effect control and ±100 the full control effect.

Sequence of UniProt P33261 (P33261 whole entry, looked up): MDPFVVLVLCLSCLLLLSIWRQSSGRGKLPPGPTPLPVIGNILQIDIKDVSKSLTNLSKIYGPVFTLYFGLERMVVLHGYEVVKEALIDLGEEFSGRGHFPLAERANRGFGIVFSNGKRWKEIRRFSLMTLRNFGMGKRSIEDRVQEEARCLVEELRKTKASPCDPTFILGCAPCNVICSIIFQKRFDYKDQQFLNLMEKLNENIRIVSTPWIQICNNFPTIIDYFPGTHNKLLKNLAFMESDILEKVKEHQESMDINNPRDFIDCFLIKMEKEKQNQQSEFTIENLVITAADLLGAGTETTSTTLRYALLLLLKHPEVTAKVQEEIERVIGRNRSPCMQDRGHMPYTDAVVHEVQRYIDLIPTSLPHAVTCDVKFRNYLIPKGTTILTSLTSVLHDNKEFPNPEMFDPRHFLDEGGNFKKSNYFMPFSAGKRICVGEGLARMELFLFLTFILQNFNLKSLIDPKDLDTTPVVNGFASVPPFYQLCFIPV

In the assay the target is Cytochrome P450 2C19 (Homo sapiens) (UniProt P33261). Description: Cytochrome panel assay with activity outcomes. To be noted: recombinant CYP, pro-luciferin dealkylation, luminescence, p450-cyp2c19; series mostly up to 57.1 µM; activity, negative = inhibition: at the top concentration. How it is done:
The P450 gene superfamily is involved in the metabolism and clearance of xenobiotics. This assay used various human CYP P450 isozymes to measure the dealkylation of various pro-luciferin substrates to luciferin. The luciferin is then measured by luminescence after the addition of a luciferase detection reagent. Pro-luciferin substrate concentration in the assay was equal to its KM for its CYP P450 isozyme. Inhibitors and some substrates limit the production of luciferin, and decrease measured luminescence.
NCGC Assay Protocol Summary:
1, Reagent, 2 uL, Isozyme and Pro-Luciferin
2, Library compounds, 23 nl, 40 uM to 0.24 nM dilution series
3, Controls, 23 nl, Isozyme specific inhibitor
4, Reagent, 2 uL, NADPH regeneration solution
5, Incubation time, 60 min, Isozyme specific temperature
6, Reagent, 4ul, Detection reagent
7, Incubation time, 20 min, Isozyme specific temperature
8, Detection, 1 sec, ViewLux luminescent read
The luciferase-based P450-GloTM Screening Systems were obtained from Promega (Madison, WI) for CYP 1A2 (V9770), CYP 2C9 (V9790), CYP2 C19 (V9880), CYP 2D6 (V9890), and CYP 3A4 Luciferin-PPXE (V9910) and were adapted for 1,536-well microplates and an automated protocol. The control compounds furafylline for 1A2 (F124), sulfaphenazole for CYP 2C9 (S0758), ketoconazole for CYP 2C19 (K1003), quinidine for 2D6 (Q3625), and ketoconazole for 3A4 (K1003) were purchased from Sigma Aldrich (St. Louis, MO). Recombinant P450 enzymes were obtained from baculovirus constructs expressed in insect cells (BD/Gentest).
Medium-binding white solid Kalypsys plates used. Mixtures kept on ice. 1A2: 10 nM 1A2, 100 uM Luc-ME, 100 mM KPO4; 2C9: 10 nM 2C9, 100 uM Luc-H, 25 mM KPO4; 2C19: 5 nM 2C19, 10 uM Luc-H EGE, 50 mM KPO4; 2D6: 5 nM 2D6, 30 uM Luc-ME EGE, 100 mM KPO4; 3A4: 10 nM, 25 uM Luc-PPXE. All amounts are reflected in their final concentration, working concentration is 2x.
NADPH regeneration solution: 1.3 mM NADP+, 3.3 mM glucose-6-phosphate, 3.3 mM MgCl2, 0.4 U/mL glucose-6-phosphate dehydrogenase for all isozymes, 200 mM KPO4 for 3A4. Mixture prepared at RT but kept on ice during automated run.
RT incubation in auxilliary plate hotel for 1A2, 2D6, and 3A4; 37C for 2C9 and 2C19.
Keywords: P450, CYP1A2, CYP2C19, CYP2C9, CYP2D6, CYP3A4, Luciferase, MLSMR, MLSCN, NIH Roadmap, qHTS, NCGC
As for `Nc1nc2ccc(OC(F)(F)F)cc2s1`, the AC50 entry is “inactive”.
As for `CCN(C(=O)CSc1nnc(Cc2cccc3ccccc23)n1N)C1CCS(=O)(=O)C1` (stereo not given), the “activity, negative = inhibition” value is inactive: -13.2%.
As for `O=S(=O)(c1ccccc1)N1CCN(S(=O)(=O)c2ccccc2)c2ccccc21`, the AC50 was active: 0.126 µM.
Regarding `COc1ccc(C2=NN(C)C(=NCc3ccccc3)SC2)cc1`, the concentration at half-maximal activity (AC50) was active: 14.1 µM.
For the molecule `C[C@@H]1C[C@H]2[C@@H]3C[C@H](F)C4=CC(=O)C=C[C@@]4(C)[C@]3(F)[C@H](O)C[C@]2(C)[C@@]1(O)C(=O)CO`, the “activity, negative = inhibition” value was inactive: 11.5% [at 25.6 µM].
For `COC(=O)C1=C(C(=O)OC)C(c2cc(Cl)ccc2O)c2sc(=O)[nH]c2S1` (stereo not given), the concentration at half-maximal activity (AC50) was active: 7.94 µM.
`CCC[C@H]1C[C@H](C(=O)N[C@@H]([C@H]2O[C@@H](SC)[C@@H](O)[C@@H](O)[C@@H]2O)[C@H](C)Cl)N(C)C1`: the “activity, negative = inhibition” value was inactive: -12.8% [at 25.6 µM].
`Nc1ccc(Sc2ccccc2CC(=O)O)cc1`: the concentration at half-maximal activity (AC50) was active: 11.2 µM.
Same read-out and setting: the value for `CCOc1cc(/C=N/n2cnnc2)ccc1OC(=O)c1cccc([N+](=O)[O-])c1` was active: 14.1 µM.
Turning to `Cc1ccc(OCCNC(=O)/C=C/c2ccc([N+](=O)[O-])cc2)cc1C`, the “activity, negative = inhibition” value was inactive: -16.2%.

By AC50 is commonly meant the concentration at which the activity in the assay is half-maximal.
